Paper PMC4336329 (PLoS ONE, 2015)
Among all 310,000 compounds or so, about 14,000 (4.5%) showed an effect of 50% or more. The effect is printed as a negative number. The list shows a part of the results.
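Further: peak tail current of the secondary pulse compared with the same well before compound.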

Each molecule was assayed against human ether-à-go-go-related gene (hERG) potassium channel (human, UniProt Q12809) (assay: primary screen, population patch clamp on CHO cells stably expressing hERG).
human ether-à-go-go-related gene (hERG) potassium channel, sequence (Q12809 whole entry, looked up): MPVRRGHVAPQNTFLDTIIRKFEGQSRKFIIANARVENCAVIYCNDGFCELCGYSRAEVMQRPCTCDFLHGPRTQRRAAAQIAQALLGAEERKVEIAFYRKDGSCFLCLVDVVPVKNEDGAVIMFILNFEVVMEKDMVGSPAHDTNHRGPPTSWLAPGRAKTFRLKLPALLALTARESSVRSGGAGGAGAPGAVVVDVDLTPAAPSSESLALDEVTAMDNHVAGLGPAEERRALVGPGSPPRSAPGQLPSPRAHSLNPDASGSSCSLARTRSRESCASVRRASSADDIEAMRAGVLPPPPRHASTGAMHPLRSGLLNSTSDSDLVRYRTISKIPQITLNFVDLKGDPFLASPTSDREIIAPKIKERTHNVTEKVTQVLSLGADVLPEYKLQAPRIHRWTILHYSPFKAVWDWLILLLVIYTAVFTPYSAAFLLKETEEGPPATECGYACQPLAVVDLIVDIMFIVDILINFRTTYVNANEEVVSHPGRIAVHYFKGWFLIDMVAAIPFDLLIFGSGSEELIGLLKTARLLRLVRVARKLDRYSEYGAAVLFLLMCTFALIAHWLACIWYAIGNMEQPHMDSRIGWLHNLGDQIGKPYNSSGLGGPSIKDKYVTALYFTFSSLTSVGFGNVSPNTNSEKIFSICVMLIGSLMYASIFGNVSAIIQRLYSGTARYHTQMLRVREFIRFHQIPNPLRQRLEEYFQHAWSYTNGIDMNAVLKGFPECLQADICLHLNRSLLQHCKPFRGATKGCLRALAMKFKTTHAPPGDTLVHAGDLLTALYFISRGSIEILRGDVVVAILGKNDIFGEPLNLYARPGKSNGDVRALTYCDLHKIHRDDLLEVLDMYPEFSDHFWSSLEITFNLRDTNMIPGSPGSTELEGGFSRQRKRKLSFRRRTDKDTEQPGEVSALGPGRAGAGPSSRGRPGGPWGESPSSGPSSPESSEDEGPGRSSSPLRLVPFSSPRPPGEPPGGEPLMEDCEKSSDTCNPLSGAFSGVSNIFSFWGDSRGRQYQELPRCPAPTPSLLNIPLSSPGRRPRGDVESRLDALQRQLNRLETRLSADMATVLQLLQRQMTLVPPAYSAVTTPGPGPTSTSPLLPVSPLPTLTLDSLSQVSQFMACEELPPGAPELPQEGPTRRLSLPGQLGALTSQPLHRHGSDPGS
O=c1c2oc3ccccc3c2ncn1Cc1ccccc1F was tested, and the “hERG current change (%, negative = inhibition) at 10uM” value was -21.4%. For CCOC(=O)CSc1nc(N)c(C#N)c(CC(C)C)c1C#N, the “hERG current change (%, negative = inhibition) at 10uM” value was -9.92%. O=C(COC(=O)c1ccccc1O)Nc1ncc(Cl)cc1Cl was tested, and the “hERG current change (%, negative = inhibition) at 10uM” value was 3.51%. For Cc1cc(NC(=O)CSc2nnc(-c3ccco3)n2Cc2ccco2)no1, the “hERG current change (%, negative = inhibition) at 10uM” value was -24.7%. With CC12CC3CC(C)(C1)CC(NCc1ccncc1)(C3)C2.Cl the “hERG current change (%, negative = inhibition) at 10uM” value was -58.7%. For C/C(=C1/SC(N2CC(C)OC(C)C2)=NC1=O)c1ccccc1 (centres unmarked), the “hERG current change (%, negative = inhibition) at 10uM” value was -22.4%. With O=C(CSc1nnc(Cc2ccccc2)n1C1CCCCC1)N1CCOCC1 the “hERG current change (%, negative = inhibition) at 10uM” value was -21.1%. For COc1ccc(NC(=O)c2oc3ccccc3c2NC(=O)C2CC2)cc1, the “hERG current change (%, negative = inhibition) at 10uM” value was -47.4%. With CCC(=O)Nc1ccc(C(=O)N/N=C/c2cccnc2)cc1 the “hERG current change (%, negative = inhibition) at 10uM” value was 3.76%. CCC(OC(=O)c1cc2sccc2n1C)C(=O)NCC1CCCO1 (centres unmarked) was tested, and the “hERG current change (%, negative = inhibition) at 10uM” value was 9.11%. COc1ccc(/C=N/Nc2cc(C)nc3c(C)cccc23)cc1 was tested, and the “hERG current change (%, negative = inhibition) at 10uM” value was -57.5%. With CCOC(=O)C(NC(=O)CC)(Nc1ccccc1OC)C(F)(F)F (centres unmarked) the “hERG current change (%, negative = inhibition) at 10uM” value was 10%. With COc1cc(C)nc(N2CCCC(C(=O)Nc3ccccc3Br)C2)n1 (centres unmarked) the “hERG current change (%, negative = inhibition) at 10uM” value was 8.77%. For COc1cccc(CNC(=O)CCCn2nc(C)n3c(cc4sccc43)c2=O)c1, the “hERG current change (%, negative = inhibition) at 10uM” value was -7.03%. In the case of Cc1cccc(-n2c(O)c(C=Nc3ccc(O)cc3)c3ccccc3c2=O)n1, the “hERG current change (%, negative = inhibition) at 10uM” value is reported as -2.73%. In the case of O=c1cc(C(F)(F)F)oc2c1ccc1ccccc12, the “hERG current change (%, negative = inhibition) at 10uM” value is reported as 9.92%. With CC(C)C(c1nnnn1Cc1ccc(F)cc1)N1CCN(C2CCCC2)CC1 (centres unmarked) the “hERG current change (%, negative = inhibition) at 10uM” value was -38.2%. With CCc1ccc(NC(=O)NCCN2CCc3ccccc3C2)cc1 the “hERG current change (%, negative = inhibition) at 10uM” value was -54.7%. COc1ccc(NC(=O)CCNS(=O)(=O)c2cc(Br)ccc2Br)cc1S(N)(=O)=O was tested, and the “hERG current change (%, negative = inhibition) at 10uM” value was 8.36%. For COc1ccccc1-n1c(CCC(=O)O)ccc1-c1ccccc1, the “hERG current change (%, negative = inhibition) at 10uM” value was -12.9%. In the case of CCOC(=O)c1ccc(N2C(=O)CC(N3CC(C)OC(C)C3)C2=O)cc1 (centres unmarked), the “hERG current change (%, negative = inhibition) at 10uM” value is reported as 18%. For COc1cc(C(CC(=O)O)n2cnnn2)ccc1OC(C)C (centres unmarked), the “hERG current change (%, negative = inhibition) at 10uM” value was 8.19%. For CCCCOc1ccc(OC(=O)Nc2cc(Cl)ccc2OC)cc1, the “hERG current change (%, negative = inhibition) at 10uM” value was 19.3%. CC(C)CNC(=O)C(=O)Nc1cc2c3c(c1)CCC(=O)N3CCC2 was tested, and the “hERG current change (%, negative = inhibition) at 10uM” value was 2.89%. With CCCC/C=C/[C@H](c1ccccc1)[C@H](CO)Cc1cccnc1 the “hERG current change (%, negative = inhibition) at 10uM” value was -7.78%. In the case of CCCCOc1ccc(/C=N/NC(=O)c2nnn(-c3nonc3N)c2C)cc1, the “hERG current change (%, negative = inhibition) at 10uM” value is reported as 12.1%. In the case of NS(=O)(=O)c1ccc(NC(=O)COc2ccc(Cl)cc2)cc1, the “hERG current change (%, negative = inhibition) at 10uM” value is reported as 1.02%. In the case of CCN(CC)CCCN(Cc1cc2cc3c(cc2[nH]c1=O)OCCO3)C(=O)Nc1ccc(F)cc1, the “hERG current change (%, negative = inhibition) at 10uM” value is reported as -61.6%. With CCOC(=O)C1=C(C)NC2=C(C(=O)CCC2)C1c1cccs1 (centres unmarked) the “hERG current change (%, negative = inhibition) at 10uM” value was -1.2%. In the case of CCCCC(=O)/C=C/n1c(=S)oc2ccccc21, the “hERG current change (%, negative = inhibition) at 10uM” value is reported as 17.9%. In the case of Cc1ccc(CNC(=O)CCCn2nc(C)n3ccnc3c2=O)cc1, the “hERG current change (%, negative = inhibition) at 10uM” value is reported as 17.1%. In the case of COc1cc(NC(=O)C2CC(c3cccc(Br)c3)=NO2)cc(OC)c1OC (centres unmarked), the “hERG current change (%, negative = inhibition) at 10uM” value is reported as -11.6%. For CC1CCC(NC(=O)CN(C)S(=O)(=O)c2cnc[nH]2)CC1 (centres unmarked), the “hERG current change (%, negative = inhibition) at 10uM” value was 12.9%. In the case of Cc1cc(C)c(S(=O)(=O)N2CCCCC2)c(C)c1N(C)S(=O)(=O)c1ccccc1, the “hERG current change (%, negative = inhibition) at 10uM” value is reported as -5.93%. COCCn1c(C)cc(C(=O)COC(=O)CNC(=O)c2ccccc2)c1C was tested, and the “hERG current change (%, negative = inhibition) at 10uM” value was 15.8%. With COc1ccc(-c2nnc(NC(=O)C(C)C)s2)c(OC)c1 the “hERG current change (%, negative = inhibition) at 10uM” value was 12.3%. In the case of Cc1cc(C)n(-c2nc3ccccc3nc2N2CCN(C(=O)c3ccccc3)CC2)n1, the “hERG current change (%, negative = inhibition) at 10uM” value is reported as -14.7%. In the case of O=[N+]([O-])c1ccc(-c2cn3c(n2)SCC3)cc1, the “hERG current change (%, negative = inhibition) at 10uM” value is reported as -7.01%. In the case of COc1cccc(NC(=O)c2ccc(S(=O)(=O)N3CCCC3)cc2)c1, the “hERG current change (%, negative = inhibition) at 10uM” value is reported as 6.79%. For Cc1nc(-c2ccc(C(=O)Nc3cc(S(N)(=O)=O)ccc3C)cc2)cs1, the “hERG current change (%, negative = inhibition) at 10uM” value was 1.21%. In the case of CC(Sc1ccccc1)C(=O)N1CCN(S(=O)(=O)c2ccccc2C(F)(F)F)CC1 (centres unmarked), the “hERG current change (%, negative = inhibition) at 10uM” value is reported as -24.1%. With Cc1cc2nc(-c3ccc[nH]c3=O)n(Cc3ccccc3F)c2cc1C the “hERG current change (%, negative = inhibition) at 10uM” value was 13.9%. In the case of CC(C)CC1NC(=O)N(CC(=O)NC2CCCc3ccccc32)C1=O (centres unmarked), the “hERG current change (%, negative = inhibition) at 10uM” value is reported as 5.89%. With COc1ccc(-n2c(C)cc(/C=C3\C(=O)NN(c4ccccc4)C3=O)c2C)cc1 the “hERG current change (%, negative = inhibition) at 10uM” value was 10.6%.
